Publication PMC6919601, “Identification of Plasmodium dipeptidyl aminopeptidase allosteric inhibitors by high throughput screening” (PLoS ONE, 2019)
In all, about 110,000 compounds went through this assay and about 230 (0.21%) showed an effect of 50% or more. This is one part of the list.

Each compound was assayed against DPAP1 (Plasmodium falciparum, UniProt Q8IIJ9) (assay: primary screen, percent inhibition; read by cleavage of a fluorogenic dipeptide substrate; higher = more effect of the substance).
Chain of DPAP1 (Q8IIJ9 whole entry, looked up): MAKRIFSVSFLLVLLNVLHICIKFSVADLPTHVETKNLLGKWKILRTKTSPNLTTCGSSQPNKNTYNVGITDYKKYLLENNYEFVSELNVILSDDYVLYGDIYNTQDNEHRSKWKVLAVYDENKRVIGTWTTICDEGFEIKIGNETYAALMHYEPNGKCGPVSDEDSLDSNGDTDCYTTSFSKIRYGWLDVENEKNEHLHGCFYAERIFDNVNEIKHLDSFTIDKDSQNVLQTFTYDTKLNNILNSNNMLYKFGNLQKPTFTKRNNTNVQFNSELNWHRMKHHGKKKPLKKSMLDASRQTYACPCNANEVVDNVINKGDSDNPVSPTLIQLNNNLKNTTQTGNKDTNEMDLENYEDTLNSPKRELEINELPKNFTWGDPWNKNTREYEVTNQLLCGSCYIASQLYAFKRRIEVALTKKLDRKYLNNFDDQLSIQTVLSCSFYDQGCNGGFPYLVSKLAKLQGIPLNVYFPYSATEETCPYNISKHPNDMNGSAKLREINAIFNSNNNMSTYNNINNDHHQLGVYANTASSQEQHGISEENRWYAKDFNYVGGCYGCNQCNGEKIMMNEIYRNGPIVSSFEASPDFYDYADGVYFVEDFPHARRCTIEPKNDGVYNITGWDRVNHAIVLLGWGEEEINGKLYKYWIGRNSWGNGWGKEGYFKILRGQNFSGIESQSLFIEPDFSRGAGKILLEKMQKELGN
Parameters: species or system P. falciparum D10 trophozoite lysates; single well
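Also: 30 min substrate incubation versus DMSO and 10 µM JCP410 controls.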

| Structure (SMILES) | % Inhibition @ 10 uM [%] |
| --- | --- |
| O=C(NCCOc1ccccc1Cc1ccccc1)c1cccnc1 | 0.9 |
| N=C1/C(=C\c2coc3ccccc3c2=O)C(=O)N=C2SC=NN12 | -0.495 |
| COc1ccc(OC)c(SC[C@H]2CCCC[C@H]2C(=O)NCC#N)c1 | -1.41 |
| c1csc(-c2ncc3ccccn23)c1 | 1.32 |
| COc1ccc(S(=O)(=O)N2CCSC2c2cc(Br)ccc2OC)cc1C (stereo not shown) | -1.98 |
| CSc1nnc2c(n1)[nH]c1ccc(C)cc12 | 2.51 |
| Cc1ccc(S(=O)(=O)N(CCCN(C)C)Cc2ccc3c(c2)OCO3)cc1 | -3.13 |
| Cc1ccc(C(=O)Nc2ccc(S(=O)(=O)N3CCCCC3)cc2)cc1Br | 3.58 |
| Nc1ccc(CCC(=O)N2CCCC2)cc1 | -3.04 |
| CC1C(=O)CCN(C)C1c1ccccc1 (stereo not shown) | 3.31 |
| Cc1nc2c(C(=O)NCc3ccccc3Cl)cnn2c(C)c1Cc1ccc(Cl)cc1 | 4.47 |
| CCOC(=O)C1=C(C)N=c2s/c(=C\c3c[nH]c4ccccc34)c(=O)n2C1c1ccc(N(C)C)cc1 (stereo not shown) | 6.39 |
| O=C1C2CCN(CC2)C1Cc1ccc2ccccc2c1O (stereo not shown) | -4.82 |
| N#CCCN(CC(=O)O)S(=O)(=O)c1ccccc1 | -6.99 |
| O=C(Nc1ccccc1NC(=O)C1CC1)C1CC1 | 0.475 |
| Cc1cccc(C(=O)Nc2ccc3nc(SCC(=O)N4CCOCC4)sc3c2)c1 | 4.7 |
| COc1ccccc1NC(=O)Cc1ccccc1 | -2.03 |
| CCCC(=O)NC(c1ccc(OC)cc1)c1cc(Cl)c2cccnc2c1O (stereo not shown) | -7.08 |
| CCOc1ccc(CCNC(=O)CCc2c(C)nc3c(-c4ccc(F)cc4)c(C)nn3c2C)cc1 | 6.1 |
| Cc1ccc(Nc2ncnc3ccccc23)cc1C | -2.19 |
| NC(=O)c1ccc(NC(=O)c2cc(-c3ccc(Cl)cc3)nc3ccccc23)cc1 | 0.389 |
| CCc1ccc(C(C)NC(=O)CSc2ccccc2)cc1 (stereo not shown) | 5.18 |
| CCNS(=O)(=O)c1cnccc1N1CCN(CCO)CC1 | 0.245 |
| CCOc1cc(/C=C2/C(=O)ON=C2C)cc(Br)c1OCc1ccc(C)cc1 | 2.95 |
| O=C(c1nc2ncccn2n1)N(Cc1ccccc1)Cc1ccccc1 | 1.72 |

| Structure (SMILES) | % Inhibition @ 10 uM [%] |
| --- | --- |
| COc1ccc(OC)c(-c2cc(C(=O)NCCCn3ccnc3)no2)c1 | -4.43 |
| CC(C)C[C@@H](CS(=O)(=O)N[C@@H](CCc1ccccc1)C(=O)COc1ccccc1)NC(=O)OCc1ccccc1 | 0.744 |
| CCCCNC(=O)c1ccc(CS(=O)(=O)Cc2cccc(C)c2)o1 | 2.35 |
| O=c1sc2ccccc2n1Cc1ccc(Br)cc1 | -0.856 |
| CC(C)OCCCNC(=O)C1CCC(CNS(=O)(=O)c2ccccc2)CC1 (stereo not shown) | 0.718 |
| c1cc[n+](Cc2nc3ccccc3s2)cc1 | 2.68 |
| CC1=CN2C(=N)/C(=C/c3cc(C)n(-c4ccccc4Cl)c3C)C(=O)N=C2S1 | 2.25 |
| CCCCn1/c(=N/C(=O)c2ccncc2)c(C(=O)OCC)cc2c(=O)n3ccccc3nc21 | -8.38 |
| O=C1N/C(=C\c2c[nH]c3ccccc23)C(=O)N1Cc1ccc(Cl)cc1 | 0.487 |
| Cc1cc2nc(NC(=O)CC(C)C)sc2cc1C | -3.25 |
| COc1ccc(-c2cc(C(=O)NCc3ccco3)c3ccccc3n2)cc1 | -5.13 |
| O=C(O)c1cc(-c2ccc3c(c2)OCO3)nc2ccccc12 | -2.02 |
| COc1ccc(NC(=O)Cn2nc(C(F)(F)F)cc2C2CC2)c(C)c1 | -0.116 |
| COc1ccccc1OC(C)C(=O)Nc1c(C(=O)c2ccccc2)oc2ccccc12 (stereo not shown) | -2.91 |
| Cc1nn(C)c2sc(C(=O)N[C@@H](C[C@H](C)c3ccccc3)C(=O)NCC#N)cc12 | -1.5 |
| CCN1CCN(C(=O)Cn2nc(-c3ccc(Cl)cc3)ccc2=O)CC1 | 6.32 |
| CC1CCc2c(sc3c2CSC(C(=O)Nc2cccnc2)=C3)C1 (stereo not shown) | 4.79 |
| CC(C)C[C@H](NC(=O)OCc1cccc([N+](=O)[O-])c1)C(=O)NCC#N | 1.71 |
| O=S(=O)(Nc1ccc(-c2cn3cccnc3n2)cc1)c1ccc2ccccc2c1 | -5.34 |
| Cc1ccc(/C=C2\C(=N)N3N=C(S(=O)(=O)CC(C)C)SC3=NC2=O)o1 | -3.35 |
| CC1(/C(CCc2ccccc2)=N/O)CCCCC1 | -0.736 |
| O=C(NC1CCCCCC1)C1c2ccccc2C(=O)N1Cc1ccc(F)cc1Cl (stereo not shown) | -1.92 |
| COCc1cc(-c2c(C#N)c(N)nc3c2CCCCCC3)ccc1OC | -0.425 |
| Nc1ncc(Br)cc1S(=O)(=O)NC1CCN(Cc2ccccc2)CC1 | 3.92 |
| CN(C)c1ccc(CN2CCc3c([nH]c4ccccc34)C2)cc1 | -1.38 |

| Structure (SMILES) | % Inhibition @ 10 uM [%] |
| --- | --- |
| Cn1c2c(c(=O)[nH]c1=O)C(c1ccc(Cl)cc1)C1=C(O)c3ccccc3C1=N2 (stereo not shown) | 3.65 |
| Nc1c(C(=O)NCC(=O)O)sc2nc3c(c(C(F)(F)F)c12)CCCCC3 | 47 |
| O=S1(=O)C=C(SCc2ccco2)c2ccccc21 | -0.105 |
| Cc1ccc(Nc2nc(-c3c(C)nc4ccccn34)cs2)cc1 | -4.31 |
| Cc1ccc(S(=O)(=O)N(C)Cc2nc(-c3ccccc3)no2)cc1 | -6.43 |
| COc1ccc(Br)cc1C1=N/C(=C\c2cccc(OC)c2OC)C(=O)O1 | 4.22 |
| O=C(NCCCc1nc2ccccc2n1CCc1ccccc1)c1ccco1 | -2.99 |
| O=C(CCn1c(=O)[nH]c2ccsc2c1=O)NCCc1ccccc1Cl | 2.64 |
| COCc1c(C)cc(C)c(/C=C(\C#N)C(N)=S)c1C | -9.12 |
| Cc1ccc(-c2nc3nc(C)cc(N4CCN(Cc5ccccc5)CC4)n3n2)cc1 | -3.87 |
| Clc1ccc(-c2noc3ncnc(NC4CCCCCC4)c23)cc1 | 7.21 |
| CCOc1ccccc1C(=O)Nc1ccc(NC(=O)c2ccccc2OCC)cc1 | 2.01 |
| Cc1ccc2c(CNCCc3ccc(Cl)cc3)c(C(=O)O)n(Cc3ccc(F)cc3Cl)c2c1 | 2.96 |
| O=C(CCc1ccccc1)n1nc(-c2ccco2)nc1NCc1cccs1 | -5.08 |
| C=CCOc1ccc(Oc2nc(N)nc(NCC)n2)nn1 | 0.401 |
| CS(=O)(=O)C1=NSC2=NC(=O)/C(=C\c3ccc(-c4cccc(C(=O)O)c4)o3)C(=N)N21 | 0.163 |
| CCOC(=O)c1ccc2ncc(-c3ccccc3)nc2c1 | -0.256 |
| Cc1ccc(S(=O)(=O)N(C)c2ccc(C(=O)Nc3ccccc3C(=O)N3CCCC3)cc2)cc1 | 2.53 |
| CC(=O)NCCc1c[nH]c2ccc(OCC(O)CNC(C)C)cc12 (stereo not shown) | -1.4 |
| CC(C)(C)OC(=O)N[C@H](C(=O)NCC#N)C1CCCC1 | 0.174 |
| COC(=O)C1=C(C)NC(=O)CC1c1ccc(Cl)cc1Cl (stereo not shown) | 1.84 |
| CCCCCn1c(SCC(=O)Nc2ccccc2)nc2c1c(=O)[nH]c(=O)n2C | -2.24 |
| CCSc1nc2ccccc2n1Cc1nc(N)nc(N(C)C)n1 | 4.58 |
| O=C(Nc1ccccc1C(F)(F)F)c1ccc(Cl)s1 | -0.687 |
| COc1ccc(C(O)Cc2cccnc2)cc1 (stereo not shown) | -2.42 |

| Structure (SMILES) | % Inhibition @ 10 uM [%] |
| --- | --- |
| Cc1nc2c3cccnc3nn2c(C)c1CCC(=O)NCCc1c[nH]c2ccccc12 | -0.0115 |
| CCCCOc1ccc(C2CC(=O)Nc3c2c(=O)nc(SC)n3C)cc1 (stereo not shown) | 3.84 |
| Cc1oc2c(c1C(=O)N1CCc3ccccc3C1)C(=O)c1ccccc1C2=O | 1.72 |
| CC(C)C[C@H](NC(=O)OCc1ccccc1)C(=O)N[C@@H](CCc1ccccc1)C(=O)CNCc1ccccc1 | -3.97 |
| COc1ccc(Cc2c(C)nc3ccc(OCCC(C)C)cc3c2S)cc1 | -3.44 |
| C1CCCC(NCCCN2CCOCC2)CC1 | -2.95 |
| O=C(NCc1ccc2c(c1)OCO2)c1cc2c(O)nc3ccccc3c2s1 | -0.499 |
| Cn1c(=O)c2c(nc(NCC(O)c3ccccc3)n2C)n(C)c1=O (stereo not shown) | -9.66 |
| COc1ccc(CC(=O)n2nc(-c3ccco3)nc2NCc2cccs2)cc1 | 8.02 |
| COc1ccc(S(=O)(=O)N(CC(=O)N2CCc3ccccc3C2)c2ccccc2)cc1 | 5.51 |
| CCOC(=O)c1c(C)oc2ncnc(NC(C)c3ccccc3)c12 (stereo not shown) | -7.65 |
| O=[N+]([O-])c1ccc(Cl)c(CN2CCCC(O)C2)c1 (stereo not shown) | 3.1 |
| Cc1ccc(-c2nnc3sc(COc4ccc(Br)cc4)nn23)cc1 | 6.01 |
| CCSc1nc2cc([N+](=O)[O-])ccc2[nH]1 | 5.56 |
| Cc1nn(C)cc1CNC(=O)c1nn2c(c1Cl)NC(c1cccs1)CC2C(F)(F)F (stereo not shown) | 2.45 |
| O=c1cc(O)nc2ccccn12 | 0.675 |
| Cc1ccc(C2NCCc3[nH]cnc32)cc1 (stereo not shown) | 0.774 |
| COc1ccc(CNc2ccc(C)cc2)c2ccccc12 | -2.21 |
| Oc1nc(/C=C/c2ccccc2)nc2sc3c(c12)CCCC3 | -1.85 |
| CC(=O)c1ccc(N2CCN(Cc3cccc(C(F)(F)F)c3)CC2)cc1 | -1.48 |
| CCC(=O)NC(c1ccccc1)c1nc2ccccc2[nH]1 (stereo not shown) | -0.58 |
| Cc1cc(=O)n2nc(N3CCCC3C(=O)NCCCN3CCCC3=O)sc2n1 (stereo not shown) | 2.8 |
| COc1ccc(CN2CCN(c3ccc([N+](=O)[O-])cc3)CC2)cc1C | 0.317 |
| O=C(CCc1nc2cccnc2n1Cc1cccs1)NCCc1c[nH]c2ccccc12 | 3.2 |
| COc1cccc(C(=O)N2CCN(Cc3ccc(SC)cc3)CC2)c1 | 4 |
